# Measurements taken from the supplement of paper PMC8728848.
# The list shows a part of the results.
# B1: PNGase F (Flavobacterium meningosepticum) (protein)
# chain: GIPAPADNTVNIKTFDKVKNAFGDGLSQSAEGTFTFPADVTAVKTIKMFIKNECPNKTCDEWDRYANVYVKNKTTGEWYEIGRFITPYWVGTEKLPRGLEIDVTDFKSLLSGNTELKIYTETWLAKGREYSVDFDIVYGTPDYKYSAVVPVVQYNKSSIDGVPYGKAHTLALKKNIQLPTNTEKAYLRTTISGWGHAKPYDAGSRGCAEWCFRTHTIAINNSNTFQHQLGALGCSANPINNQSPGNWTPDRAGWCPGMAVPTRIDVLNNSLIGSTFSYEYKFQNWTNNGTNGDAFYAISSFVIAKSNTPISAPVVTNLDPHHHHHH
# What was measured:
# Assay in all cases: glycan array binding signal (z-score within array); higher = stronger binding
# Details in all cases: glycan notation: IUPAC condensed, linker removed
# [1] = target: GlcNAc(b1-2)[GlcNAc(b1-4)]Man(a1-3)[GlcNAc(b1-4)][GlcNAc(b1-2)[GlcNAc(b1-6)]Man(a1-6)]Man(b1-4)GlcNAc(b1-4)GlcNAc
# In short: (§1)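 The binding signal is a Z-score computed within each array and averaged over linkers. Arrays of the same protein sequence at different concentrations or buffers were also averaged together. Data originate from 3228 arrays in the Consortium for Functional Glycomics database, kept only where the protein sequence was available.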
# [2] = target: GlcNAc(b1-2)[GlcNAc(b1-4)]Man(a1-3)[GlcNAc(b1-4)][GlcNAc(b1-2)[GlcNAc(b1-6)]Man(a1-6)]Man(b1-4)GlcNAc(b1-4)[Fuc(a1-6)]GlcNAc
# In short: as §1
# [3] = target: GlcNAc(b1-2)[GlcNAc(b1-6)]Man(a1-6)[GlcNAc(b1-2)Man(a1-3)]Man(b1-4)GlcNAc(b1-4)GlcNAc
# In short: as §1
# [4] = target: GlcNAc(b1-2)[GlcNAc(b1-6)]Man(a1-6)[GlcNAc(b1-2)Man(a1-3)]Man(b1-4)GlcNAc(b1-4)[Fuc(a1-6)]GlcNAc
# In short: as §1
# [5] = target: GlcNAc(b1-2)[GlcNAc(b1-6)]Man(a1-6)[GlcNAc(b1-4)][GlcNAc(b1-2)Man(a1-3)]Man(b1-4)GlcNAc(b1-4)GlcNAc
# In short: as §1
# [6] = target: GlcNAc(b1-3)Fuc
# In short: as §1
# [7] = target: GlcNAc(b1-3)Gal
# In short: as §1
# [8] = target: GlcNAc(b1-3)Gal(b1-3)GalNAc
# In short: as §1
# [9] = target: GlcNAc(b1-3)Gal(b1-4)Glc
# In short: as §1
# [10] = target: GlcNAc(b1-3)Gal(b1-4)GlcNAc
# In short: as §1
# [11] = target: GlcNAc(b1-3)Gal(b1-4)GlcNAc(b1-2)Man(a1-3)[GlcNAc(b1-3)Gal(b1-4)GlcNAc(b1-2)Man(a1-6)]Man(b1-4)GlcNAc(b1-4)GlcNAc
# In short: as §1
# [12] = target: GlcNAc(b1-3)Gal(b1-4)GlcNAc(b1-2)Man(a1-3)[GlcNAc(b1-3)Gal(b1-4)GlcNAc(b1-2)Man(a1-6)]Man(b1-4)GlcNAc(b1-4)[Fuc(a1-6)]GlcNAc
# In short: as §1
# [13] = target: GlcNAc(b1-3)Gal(b1-4)GlcNAc(b1-2)[GlcNAc(b1-3)Gal(b1-4)GlcNAc(b1-6)]Man(a1-6)[GlcNAc(b1-3)Gal(b1-4)GlcNAc(b1-2)Man(a1-3)]Man(b1-4)GlcNAc(b1-4)GlcNAc
# In short: as §1
# [14] = target: GlcNAc(b1-3)Gal(b1-4)GlcNAc(b1-3)Gal(b1-4)GlcNAc
# In short: as §1
# [15] = target: GlcNAc(b1-3)Gal(b1-4)GlcNAc(b1-3)Gal(b1-4)GlcNAc(b1-2)Man(a1-3)[GlcNAc(b1-3)Gal(b1-4)GlcNAc(b1-3)Gal(b1-4)GlcNAc(b1-2)Man(a1-6)]Man(b1-4)GlcNAc(b1-4)GlcNAc
# In short: as §1
# [16] = target: GlcNAc(b1-3)Gal(b1-4)GlcNAc(b1-3)Gal(b1-4)GlcNAc(b1-2)Man(a1-3)[GlcNAc(b1-3)Gal(b1-4)GlcNAc(b1-3)Gal(b1-4)GlcNAc(b1-2)Man(a1-6)]Man(b1-4)GlcNAc(b1-4)[Fuc(a1-6)]GlcNAc
# In short: as §1
# [17] = target: GlcNAc(b1-3)Gal(b1-4)GlcNAc(b1-3)Gal(b1-4)GlcNAc(b1-2)[GlcNAc(b1-3)Gal(b1-4)GlcNAc(b1-3)Gal(b1-4)GlcNAc(b1-6)]Man(a1-6)[GlcNAc(b1-3)Gal(b1-4)GlcNAc(b1-3)Gal(b1-4)GlcNAc(b1-2)Man(a1-3)]Man(b1-4)GlcNAc(b1-4)[Fuc(a1-6)]GlcNAc
# In short: as §1
# [18] = target: GlcNAc(b1-3)Gal(b1-4)GlcNAc(b1-3)Gal(b1-4)GlcNAc(b1-3)Gal(b1-4)GlcNAc(b1-2)Man(a1-3)[GlcNAc(b1-3)Gal(b1-4)GlcNAc(b1-3)Gal(b1-4)GlcNAc(b1-3)Gal(b1-4)GlcNAc(b1-2)Man(a1-6)]Man(b1-4)GlcNAc(b1-4)GlcNAc
# In short: as §1
# [19] = target: GlcNAc(b1-3)Gal(b1-4)GlcNAc(b1-3)Gal(b1-4)GlcNAc(b1-3)Gal(b1-4)GlcNAc(b1-2)Man(a1-3)[GlcNAc(b1-3)Gal(b1-4)GlcNAc(b1-3)Gal(b1-4)GlcNAc(b1-3)Gal(b1-4)GlcNAc(b1-2)Man(a1-6)]Man(b1-4)GlcNAc(b1-4)[Fuc(a1-6)]GlcNAc
# In short: as §1
# [20] = target: GlcNAc(b1-3)Gal(b1-4)GlcNAc(b1-3)Gal(b1-4)GlcNAc(b1-3)Gal(b1-4)GlcNAc(b1-2)[GlcNAc(b1-3)Gal(b1-4)GlcNAc(b1-3)Gal(b1-4)GlcNAc(b1-3)Gal(b1-4)GlcNAc(b1-6)]Man(a1-6)[GlcNAc(b1-3)Gal(b1-4)GlcNAc(b1-3)Gal(b1-4)GlcNAc(b1-3)Gal(b1-4)GlcNAc(b1-2)Man(a1-3)]Man(b1-4)GlcNAc(b1-4)[Fuc(a1-6)]GlcNAc
# In short: as §1
# [21] = target: GlcNAc(b1-3)Gal(b1-4)GlcNAc(b1-3)Gal(b1-4)GlcNAc(b1-3)Gal(b1-4)GlcNAc(b1-3)Gal(b1-4)GlcNAc(b1-2)Man(a1-3)[GlcNAc(b1-3)Gal(b1-4)GlcNAc(b1-3)Gal(b1-4)GlcNAc(b1-3)Gal(b1-4)GlcNAc(b1-3)Gal(b1-4)GlcNAc(b1-2)Man(a1-6)]Man(b1-4)GlcNAc(b1-4)GlcNAc
# In short: as §1
# [22] = target: GlcNAc(b1-3)Gal(b1-4)GlcNAc(b1-3)Gal(b1-4)GlcNAc(b1-3)Gal(b1-4)GlcNAc(b1-3)Gal(b1-4)GlcNAc(b1-2)Man(a1-3)[GlcNAc(b1-3)Gal(b1-4)GlcNAc(b1-3)Gal(b1-4)GlcNAc(b1-3)Gal(b1-4)GlcNAc(b1-3)Gal(b1-4)GlcNAc(b1-2)Man(a1-6)]Man(b1-4)GlcNAc(b1-4)[Fuc(a1-6)]GlcNAc
# In short: as §1
# [23] = target: GlcNAc(b1-3)Gal(b1-4)GlcNAc(b1-3)Gal(b1-4)GlcNAc(b1-3)Gal(b1-4)GlcNAc(b1-3)Gal(b1-4)GlcNAc(b1-2)[GlcNAc(b1-3)Gal(b1-4)GlcNAc(b1-3)Gal(b1-4)GlcNAc(b1-3)Gal(b1-4)GlcNAc(b1-3)Gal(b1-4)GlcNAc(b1-6)]Man(a1-6)[GlcNAc(b1-3)Gal(b1-4)GlcNAc(b1-3)Gal(b1-4)GlcNAc(b1-3)Gal(b1-4)GlcNAc(b1-3)Gal(b1-4)GlcNAc(b1-2)Man(a1-3)]Man(b1-4)GlcNAc(b1-4)[Fuc(a1-6)]GlcNAc
# In short: as §1
# [24] = target: GlcNAc(b1-3)Gal(b1-4)GlcNAc(b1-3)Gal(b1-4)GlcNAc(b1-3)GalNAc
# In short: as §1
# [25] = target: GlcNAc(b1-3)Gal(b1-4)GlcNAc(b1-3)GalNAc
# In short: as §1
# [26] = target: GlcNAc(b1-3)Gal(b1-4)GlcNAc(b1-3)[GlcNAc(b1-3)Gal(b1-4)GlcNAc(b1-3)]GalNAc
# In short: as §1
# [27] = target: GlcNAc(b1-3)Gal(b1-4)GlcNAc(b1-6)[Gal(b1-3)]GalNAc
# In short: as §1
# [28] = target: GlcNAc(b1-3)Gal(b1-4)GlcNAc(b1-6)[GlcNAc(b1-3)Gal(b1-3)]GalNAc
# In short: as §1
# [29] = target: GlcNAc(b1-3)Gal(b1-4)GlcNAc(b1-6)[GlcNAc(b1-3)]Gal(b1-4)GlcNAc
# In short: as §1
# [30] = target: GlcNAc(b1-3)GalNAc
# In short: as §1
# [31] = target: GlcNAc(b1-3)Man
# In short: as §1
# [32] = target: GlcNAc(b1-3)[GlcNAc(b1-4)][GlcNAc(b1-6)]GlcNAc
# In short: as §1
# [33] = target: GlcNAc(b1-3)[GlcNAc(b1-6)]Gal(b1-4)GlcNAc
# In short: as §1
# [34] = target: GlcNAc(b1-3)[GlcNAc(b1-6)]GalNAc
# In short: as §1
# [35] = target: GlcNAc(b1-4)Gal(b1-4)GlcNAc
# In short: as §1
# [36] = target: GlcNAc(b1-4)GlcNAc
# In short: as §1
# [37] = target: GlcNAc(b1-4)GlcNAc(b1-4)GlcNAc
# In short: as §1
# [38] = target: GlcNAc(b1-4)GlcNAc(b1-4)GlcNAc(b1-4)GlcNAc(b1-4)GlcNAc
# In short: as §1
binder,measurement,setting,value
B1,glycan array binding signal (z-score),[1],-0.237
same,glycan array binding signal (z-score),[2],-0.395
same,glycan array binding signal (z-score),[3],-0.253
same,glycan array binding signal (z-score),[4],-0.288
same,glycan array binding signal (z-score),[5],-0.333
same,glycan array binding signal (z-score),[6],0.029
same,glycan array binding signal (z-score),[7],-0.095
same,glycan array binding signal (z-score),[8],-0.275
same,glycan array binding signal (z-score),[9],-0.201
same,glycan array binding signal (z-score),[10],-0.264
same,glycan array binding signal (z-score),[11],-0.271
same,glycan array binding signal (z-score),[12],-0.237
same,glycan array binding signal (z-score),[13],-0.08
same,glycan array binding signal (z-score),[14],-0.343
same,glycan array binding signal (z-score),[15],-0.013
same,glycan array binding signal (z-score),[16],-0.252
same,glycan array binding signal (z-score),[17],-0.351
same,glycan array binding signal (z-score),[18],-0.338
same,glycan array binding signal (z-score),[19],-0.197
same,glycan array binding signal (z-score),[20],-0.258
same,glycan array binding signal (z-score),[21],-0.244
same,glycan array binding signal (z-score),[22],-0.262
same,glycan array binding signal (z-score),[23],-0.3
same,glycan array binding signal (z-score),[24],-0.302
same,glycan array binding signal (z-score),[25],-0.309
same,glycan array binding signal (z-score),[26],-0.117
same,glycan array binding signal (z-score),[27],-0.294
same,glycan array binding signal (z-score),[28],-0.267
same,glycan array binding signal (z-score),[29],-0.336
same,glycan array binding signal (z-score),[30],-0.001
same,glycan array binding signal (z-score),[31],3.03
same,glycan array binding signal (z-score),[32],-0.303
same,glycan array binding signal (z-score),[33],-0.238
same,glycan array binding signal (z-score),[34],-0.217
same,glycan array binding signal (z-score),[35],-0.072
same,glycan array binding signal (z-score),[36],10.4
same,glycan array binding signal (z-score),[37],-0.144
same,glycan array binding signal (z-score),[38],0.03
